Measurements taken from the supplement of paper PMC3334620.
In all, about 33,000 sequences were measured (“E-score (-0.5 to 0.5)”: median about -0.016, highest 2% from about 0.31 on). The list shows a part of the results.

The sequences below were run against Cst6 (UniProt P40535) (assay: PBM E-score (8-mer binding enrichment) (E-score (-0.5 to 0.5)); higher = stronger / more preferred TF binding; most listed sequences are background and not binding sites). Details: protein concentration: 200 nM; construct: GST-DNA-binding domain.
Procedure, shortened: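 Each ungapped eight-base word and its reverse complement, pooled, received an E-score from the Universal PBM Analysis Suite. Underlying scans, normalised with masliner, recorded fluorescent anti-GST bound to GST-tagged yeast transcription factors. These were applied at about 100-200 nM to universal all-10-mer Agilent arrays double-stranded by primer extension.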

Sequence	PBM E-score
ACATGTGA	0.0989
CAGGGTGG	-0.23
CTGTTGAC	0.153
CAGATTTC	0.00738
ACAGTTTA	0.0128
CAAGTCAC	0.0766
GAGCACCC	-0.379
GGGGATAC	-0.211
CGCAACGC	0.0646
GCGCACAC	-0.137
TCTCTACA	0.0285
GCGGTCCC	-0.242
TTAGGGAA	-0.0124
CAGAGAAC	-0.0614
AGGCACGA	0.117
ATGAAAGC	0.209
CCTCGATA	0.109
AGTCTGGA	-0.139
GCTTCCTA	-0.0171
AACAAACG	0.156
ACGTGCCC	0.0548
GCCGCCCA	-0.122
GACTGCCA	-0.0261
AGTCAAAG	-0.062
ACGCACAA	-0.0302

Sequence	PBM E-score
AATGAAGG	-0.0754
CCTAGAGC	-0.218
CACGCCTA	-0.0609
CGGATTAC	0.0253
GGCTTTCA	0.222
GTTTCACA	0.173
CGTTGGAG	-0.0858
CGCCGCGA	0.241
GTTAACTA	0.0802
CGTCCCAA	-0.00272
CTCACCCC	-0.0415
CATCTCCC	-0.202
AGGCCATG	-0.00333
GCAAAAAC	0.0554
CTCAAGAC	-0.114
ACCTATAG	-0.0739
TCAGTAAA	0.238
CCTCATAC	0.106
AGTGACTA	0.0534
ACAGATGC	-0.0485
AACCGACT	-0.142
CGACTGCA	-0.0929
AACAAACC	0.11
CTGTAAGA	0.0332
CCGTCTAA	-0.109

Sequence	PBM E-score
AAGGCGAG	-0.223
GTTGAAAA	0.0847
ATGGCCAC	-0.208
TAAGAGGA	-0.0598
ATGAAAAT	0.295
CAGTTCAG	-0.0708
AAAATTAC	0.257
CTCTAGAA	-0.112
GGGAGAGA	-0.408
CCTTGGGC	-0.166
AGCTTTAG	-0.138
TCATATAA	0.305
TAAATTCA	0.0911
CCACCAGA	-0.00821
GTACATCA	0.275
ATCGAATA	0.00254
AGCTGCCT	-0.25
ACCGTGTA	0.0493
CAATCCAC	0.0953
TAAGCTGA	0.113
AACCGGTA	-0.104
TAACCTAA	0.158
CTGAAGAA	-0.261
CTCACCAC	-0.0767
GAATTGGC	-0.121

Sequence	PBM E-score
ATAAACAT	0.208
GTATGCAA	0.177
CGTGCAAA	0.0895
GGCAAACA	0.0939
CCAGATCC	-0.293
CCCATTAG	-0.375
ATATGAGA	0.0308
ACTAATTG	0.094
GAACGTGC	-0.175
ACGTCGAG	-0.115
GAGAGTGC	-0.06
CGACGTAC	0.139
CGTAGACG	0.0295
CGCCCTAC	-0.132
AACAACTC	-0.0344
GCGTGTAA	0.0628
ACGGTCCG	-0.209
GGGCACAA	-0.0454
GTCGAAGA	-0.0639
ACGCTACT	-0.0234
ATTTATAA	0.293
CAGGCAGC	-0.202
AGATCATC	0.097
ATCTAATC	0.229
ACAGAAGG	-0.226

Sequence	PBM E-score
CTTGAGTA	-0.13
CTAGTAAG	-0.00378
CCGGATGC	-0.197
AAGGAGAA	0.0587
ATACTCTG	-0.0234
ATAGTTGA	0.1
ACCCAACA	-0.195
CTTGATTC	0.0897
ACGAAGAG	-0.0142
AGAGCTAA	-0.0708
GGTAGCAA	-0.19
AGTTAGAC	0.0891
ATAGATCA	0.145
AGTCAGAA	0.05
CTGGCAAC	-0.307
TATCTAGA	0.00056
ATTGTTGA	0.279
AAGTAGTG	0.0897
ATAACACA	0.192
ATGCAAGC	0.022
GAAGCAGC	-0.268
AGGTAGCC	-0.199
CATCGGCC	-0.18
CATATTGC	0.029
ACAGCCTG	-0.0809

Sequence	PBM E-score
CGGCACAC	0.177
CATGATGG	-0.0379
CCCTAAAA	-0.118
GTCGGCCA	-0.235
ACCAAGCG	-0.203
CCGATCAA	-0.212
GGATGAAC	-0.118
TAATAGTA	0.23
ATCGGAAG	0.0884
CCTAGGAG	-0.214
GGGCGGAA	-0.215
AACGGACT	-0.318
ACGGCACA	0.327
ACATCCAA	0.131
GTCCTCCA	-0.257
GTTTATTA	0.164
CAGGGAGC	-0.25
CATAACTA	0.199
GAGGAGAA	-0.168
CGGGTACG	-0.171
CTTAGCCA	-0.021
CTCAGTGC	-0.0726
CAGAGCTA	-0.217
AAAAGATT	0.0616
CGCACAAG	-0.113

Sequence	PBM E-score
CAATACAA	0.15
GGTGCCTA	-0.0594
CACATTTC	0.131
AGTAACAC	-0.00261
CTCGGGAA	-0.117
CTAGCGCA	-0.235
CCAGACTA	-0.27
TACATGTA	0.105
CCCCCCAC	-0.394
CCAATTAG	0.0724
ATGGGACC	-0.139
CTTCCCCC	-0.314
ATGCATAC	0.11
CATGCCAA	0.0621
ATGAAAGA	0.175
AACTCCCG	-0.0902
TTACTCAA	0.133
ACTCGGCC	-0.144
GAGCCATC	-0.056
CCACGAAA	0.0402
CCCTCCCG	-0.249
CGACTCCG	-0.314
TGGGCAAA	-0.0373
AAATAATC	0.178
ACGCGTTC	-0.041

Sequence	PBM E-score
AAAGCGCA	-0.146
CTAAAATA	0.18
CCTTTACC	-0.194
CGATTGCG	0.11
ACTTGATA	0.0974
CTGCGCCC	-0.302
ATGTAGTG	0.0861
GTTATAAA	0.269
CTCACAGA	-0.0236
AGTTGCAG	-0.115
GTTAGTAA	0.0396
AAGACTTG	-0.108
AGTGGTGA	0.241
AGCCATAG	-0.226
CCGGACGC	8e-05
ACAAAACA	0.205
GTCAATAA	0.155
TATGATGA	0.337
ACCTTATG	-0.00272
CGCTACAA	0.0279
CGGAGATC	-0.205
CAACTCTA	-0.125
ATGTGGCA	0.152
AGTTCGCC	0.0158
AATGCTAG	-0.0907

Sequence	PBM E-score
CGGACGGC	0.136
AAGCGATA	0.1
AAGTAATG	0.116
GTAAAGCA	0.167
ATAAATAC	0.299
CCGGGCCA	-0.203
GACCCGTA	-0.015
CTGAGTGC	-0.153
CTACTAAA	0.0911
CTTGGTTA	-0.017
GCGGGCGA	-0.0322
AAGTTTTG	0.14
CGAAACGA	0.115
CAGTCGGA	-0.255
AGATCTAC	-0.11
ATAGATGC	-0.0272
GGATTTAC	0.119
CCCCACGG	-0.0769
GAATCTCA	-0.17
GAAGGTAA	0.144
CTCAGATC	-0.0954
ACGTGCGG	0.119
CTCTTCTA	-0.109
ATATCCTA	0.0504
GAGAAGGA	-0.114

Sequence	PBM E-score
CACTATAG	-0.0685
GCTACATA	-0.157
CCACGACC	-0.121
AGCTACTC	-0.274
CACATTAC	0.269
AAAATGGG	-0.0472
AGCTCGGC	-0.0177
AGCCACTA	-0.0971
CGGTCATC	0.085
TGTGGGAA	-0.0456
CCGACCTC	-0.26
CTCAGACA	0.0563
AATCATTG	0.103
AGCCTGAT	0.0483
GGCGTCGA	0.198
ATACGCAC	0.073
ATCGTCCA	-0.18
ACTAATGC	0.168
AAGAACTG	-0.0222
ACGCCGTC	0.389
TATTATAA	0.193
AGATGTCA	0.298
ACGTACAC	0.194
AAAGGGCT	-0.174
ACGCGCGT	0.151

Sequence	PBM E-score
AGCCTCGG	-0.25
ACGGAGTA	-0.024
AGACATTG	-0.114
TACTGAAA	0.273
GGCTAAGA	-0.0856
AACCAGTT	0.231
AGCGCCGG	-0.102
CGTACACC	-0.093
GCCCCGAC	-0.259
GGTTATGA	0.076
AAGCTCCC	-0.347
GGTGATCA	0.106
CAGGCTCA	-0.0301
AGTCCAAA	-0.00975
ACTTCAAT	0.187
ATTGTTGC	0.234
CTGGCGTC	-0.0408
CACCCGAC	0.00511
ATTCCCTA	0.00087
CCTTTTCA	0.0178
AAGCGCCA	-0.149
AGGCCACT	-0.174
TCGCAGAA	-0.0678
AATAGTCT	-0.0531
TACCAAGA	0.0149

Sequence	PBM E-score
ATGTCGGC	-0.0222
GCAGTTGA	0.00361
CCCCAGCA	-0.23
AACTGCCC	-0.271
ACAGTTTC	0.124
CCAAAACG	0.0419
TACACCAA	-0.087
CCACAGGA	-0.11
AAGAGCCC	-0.144
AAGACCCT	-0.213
AAGGACCC	-0.382
GAAAATCC	0.103
ACGAGATA	0.096
GTATGGAC	-0.0386
GCGCACGA	0.0114
GGATATCA	-0.0151
TCTCCACA	0.0777
CACTGCGG	0.0257
CAGAGGCC	-0.298
AACAATGC	0.175
TTATAAAA	0.236
GAACTGTC	-0.226
ACTCGCAG	-0.0927
AGGCGATG	-0.0448
CGAACTCG	0.00456

Sequence	PBM E-score
CCTCAGCA	-0.276
GAGAGGAC	-0.16
CCGTCGTA	-0.0253
CCTTAGAG	-0.27
CCTATTCA	-0.0777
AACTCCCC	-0.243
TCTACTCA	0.0937
CCGTAATC	0.0889
CACTTGGC	-0.08
ACTGCCCC	-0.29
AAGTTCGC	0.0219
TCAGTAGA	0.0696
AAGTACAT	0.06
GGAATGAA	0.181
TCCTGTCA	-0.0225
CTAGGAAG	-0.238
CGTGGTTC	-0.077
CACCCGTG	-0.173
AATTCCCC	-0.0694
CTTTAGAC	0.0102
GTCTATTA	0.0308
GCTCGGCA	-0.0691
CTGAGTAC	-0.0198
CCGGCATA	-0.15
CGTCTAAA	-0.113

Sequence	PBM E-score
GGTGCGAC	-0.168
CAATCTAC	-0.0958
GCTCAATA	0.0653
CCAGATAC	-0.0851
CAGAATAA	0.16
AGGCCTAG	-0.221
AGTTCAAA	0.139
AACCCTAT	0.0363
GCATTATA	0.0909
ATAAATAG	0.135
CTGCAGAC	-0.207
AGCTTGGA	-0.274
ACAGGTCC	-0.25
AATATCAA	0.128
CGGTAGAC	-0.102
AATTGCGA	-0.111
AACGTCCT	-0.0138
AGACAAGA	0.0392
TAACACAA	0.211
